# Assay results from the supplement of paper PMC11417369.
# The other results are listed elsewhere or left out.
# Tested on: PF3D7_0420300 AP2 domain 1 (GST-tagged)
# Test: gcPBM binding intensity (ln(normalized median fluorescence intensity)); higher = stronger DNA binding
# In short: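 For binding intensity, the highest Masliner-normalised natural-log median intensity across replicate spots of either probe orientation was taken. Protein bound to the array was stained with Alexa488 anti-GST antibody and scanned at 488 nm. The protein, GST-tagged P. falciparum DNA-binding domains from E. coli at about 25 μg on average, had been applied for 1 h to an Agilent 4 × 180k array of primer-extended double-stranded 36-bp intergenic genomic probes and negative controls.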
row,Sequence,gcPBM binding intensity (ln)
1,TTTATTTATGTTGAAACATGCAAAAAGTTATTTATA [TGCATGCA_site716],8.81
2,TTCAAAAGCCGGATAACATGCAGTAGTAGAACAAAC [TGCATGCA_site413],9.7
3,TATATATATATTTTAACACACACATATATATATTTA [CACACA_site8892],9.63
4,ATGCTTTTTAAATGATTGCACTAGATTGTAATATGT [GTGCAC_site9666],9.24
5,ATATATATATATTGCACACACAATTATTATTATTAT [CACACA_site2299],9.61
6,TGTATGAAATATATTACACACATATAAAATCTATAT [CACACA_site6514],9.5
7,TTTTTAATTTTTTGTTGTACATATAATATATTATTA [XGTACX_site4903],9.23
8,TTGATGTTGGTAGGATGTACGGTACCGGTAAAGTTT [XGTACX_site7705],9.28
9,AAGCTTCATTAATATACACACATATATGCGTATATT [CACACA_site3695],9.51
10,TATATAATTATAAGAACACACATATATATATATATA [CACACA_site2472],9.19
11,AAATTTGAAGAATATTGTACGCATAATAATTAAATA [XGTACX_site4300],9.23
12,TTCTAACTTTTAAACACACAAATATAAATAAGTATA [CACACA_site7473],9.12
13,GAACGTATCATGTGTACACACAAATTGTTTTTTTTT [CACACA_site2020],9.72
14,AAATGAACAAGTGGCACACACACATTATAACTAATT [CACACA_site9048],9.92
15,AAGAATAATAATAAATGTACACAATATTATATATAT [XGTACX_site5525],9.36
16,TGCAAGCTTATATAGGTGCACATGTATACGTGTTCA,9.21
17,TATTAAAATTAAAAAAAAAAAAAAAAGCAATAAAAA [XGTACX_negctrl_site426],9.3
18,TATATACACAAACACACACACACATACACCCACATA [CACACA_site8504],10.3
19,TATGTAGTCACAAGGTGTACACTTTAACAAATTATG [XGTACX_site8792],9.09

row,Sequence,gcPBM binding intensity (ln)
1,AATTATATATTTGAGAGTACATATGTAATGTTTATA [XGTACX_site6970],9.23
2,GTGCATATCTGATATACACACAATAAAATAGTATGT [CACACA_site7203],9.33
3,CATATATTATTTATACGTACTAATAAAATAAATCAA [XGTACX_site1030],9.08
4,TATGATACATAAATATGTACGTATAATATATATTTA [XGTACX_site7002],9.12
5,CCCGTAAATTATGAGTGTACGTTATTTTTTAAAATG [XGTACX_site3946],9.06
6,ACATATACATATATATGTACATAAATATATATATAT [XGTACX_site8630],9.17
7,AAAAAATAATAAATCACACATATTATATATATATAT [CACACA_site5838],9.28
8,AACATGAAAGATAGCAAAAAAAAAAAAAAAAAAAAA [TGCATGCA_negctrl_site607],8.42
9,TCTTTTTTTATTTTATTTTTTTTTTTTAAATAATTC [TGCATGCA_negctrl_site372],9.09
10,CATATTAATATTATGGGTACATATAAATTTACATTC [XGTACX_site687],9.22
11,AAAACATAAATACATACACACATAATATATATTAAT [CACACA_site109],9.76
12,ATTATAATATTGTTATGTACATAAAAATTATTGAAT [XGTACX_site4476],9.19
13,TGATTCTTTTGTATCACACACACTTAGTTTAATTTT [CACACA_site2404],9.75
14,TTTTTTTATTATCATGCACACATTTTTTTTTTTTAC [CACACA_site2253],9.57
15,ACTTGACACGGACACACACACATATATAAAAAAAAA [CACACA_site4576],9.87
16,TCCTTTATTTTTAAATGTACAAATATTATCTCCTCA [XGTACX_site5856],9.07
17,ATAATAAAAATAAGAGAATAAAAATGCAATTTAATG [CACACA_negctrl_site878],9.44
18,AACTCACATAAATTCACACAAATGTATATTCATATA [CACACA_site4554],9.23
19,ATTGATCGGATAAAATGTACAAATATATATATATAT [XGTACX_site7345],9.27

row,Sequence,gcPBM binding intensity (ln)
1,ATTTATAATGTGTATACACACATATATAGATTTGCT [CACACA_site6440],9.46
2,AAATTATAATATAATACACACATAAAAAAAAAATCA [CACACA_site3634],9.56
3,TATATATATATATATTGTACACATATATATTTACGA [XGTACX_site4791],9.14
4,AATAATACACAATTTTGTACGTATTTAAAATATATT [XGTACX_site45],9.26
5,AATTAAAAACATTTCACACATAAAAATGAAATATAT [CACACA_site5199],9.31
6,TATTTATGAGAAATAGTGCAAAGATATGATCTTTAA,8.9
7,TAAAATATATAATAATGTACATATTTTTATTTAGGA [XGTACX_site4987],9.06
8,AAAAATTACCTGACTTGTACATAATTTAAGAACAAT [XGTACX_site6233],9.13
9,ATAATATATTTATAATGTACATAAGAACAAATTAAA [XGTACX_site1745],9.32
10,ACGTTTGATACACATAAAGTTTTCCTTTGAATGTAC [CACACA_negctrl_site106],9.26
11,GGTATATTAAAATAGGTGCATAAAACTAAGAGAAAA [GTGCAC_site9781],9.41
12,TGTGCTATATTCATATGTACATATAATTATTATATA [XGTACX_site3549],9.31
13,ATAAAATAAAAGTGTACACAAGAAAATATGTTATGT [CACACA_site6033],9.65
14,ATTTGTGATTTGTGTGTGCACGTATTTACAGAACAA [GTGCAC_site9498],9.72
15,AAGAAAAAATATATATATATATATATATATAATATG [TGCATGCA_negctrl_site417],9.11
16,TTATATTATTTTTATACATGCATTTCTATATATTTT [TGCATGCA_site164],9.57
17,TTCAATTTTTTATGAACACACAAAAAAAAAAAAAAA [CACACA_site2533],8.69
18,ATATATAAGGATGTCACACATAAATATTAACACTAA [CACACA_site5101],9.32
19,TGTATTAATAAAAATACACACATCATATTATAGAAA [CACACA_site7629],9.49
